Assay results: patent publication US20230174644A1 (published 2023)

Target: T1, Integrin β1 (endogenous, HMECs) (human, UniProt P05556)
T1 construct: Only the β1 chain was probed; the α chain that goes with it in the cells is not determined; also called integrin α5β1
Experiment: immunoprecipitation with polyclonal antibodies against NL from HMECs, probing for integrin β1
Method: Since integrin was also reported to be a receptor for ES, it is interesting to test whether there is an interaction between NL and integrin. Among the integrin family, integrin α5β1 was reported to be the receptor for ES by Rehn et al. and Sudhakar et al., therefore, colocalization between cell surface NL and integrin α5β1 was performed by indirect immunofluorescence using the mouse anti-integrin β1 and the rabbit anti-NL. […] Consequently, IP with polyclonal antibodies against NL was introduced to capture the complex of NL and integrin β1. Unfortunately, integrin β1 cannot be detected in the precipitate, implying that the interaction between NL and integrin β1 is indirect. […] Therefore, we speculate that ES may interfere with cell motility and adhesion mediated by NL-myosin complex. It is plausible that cell surface NL and integrin α5β1 along with other proteins such as myosin form a huge complex which together serves as an integrated receptor for ES (see FIG. 6).

T1 sequence (P05556 21-798 limits assumed): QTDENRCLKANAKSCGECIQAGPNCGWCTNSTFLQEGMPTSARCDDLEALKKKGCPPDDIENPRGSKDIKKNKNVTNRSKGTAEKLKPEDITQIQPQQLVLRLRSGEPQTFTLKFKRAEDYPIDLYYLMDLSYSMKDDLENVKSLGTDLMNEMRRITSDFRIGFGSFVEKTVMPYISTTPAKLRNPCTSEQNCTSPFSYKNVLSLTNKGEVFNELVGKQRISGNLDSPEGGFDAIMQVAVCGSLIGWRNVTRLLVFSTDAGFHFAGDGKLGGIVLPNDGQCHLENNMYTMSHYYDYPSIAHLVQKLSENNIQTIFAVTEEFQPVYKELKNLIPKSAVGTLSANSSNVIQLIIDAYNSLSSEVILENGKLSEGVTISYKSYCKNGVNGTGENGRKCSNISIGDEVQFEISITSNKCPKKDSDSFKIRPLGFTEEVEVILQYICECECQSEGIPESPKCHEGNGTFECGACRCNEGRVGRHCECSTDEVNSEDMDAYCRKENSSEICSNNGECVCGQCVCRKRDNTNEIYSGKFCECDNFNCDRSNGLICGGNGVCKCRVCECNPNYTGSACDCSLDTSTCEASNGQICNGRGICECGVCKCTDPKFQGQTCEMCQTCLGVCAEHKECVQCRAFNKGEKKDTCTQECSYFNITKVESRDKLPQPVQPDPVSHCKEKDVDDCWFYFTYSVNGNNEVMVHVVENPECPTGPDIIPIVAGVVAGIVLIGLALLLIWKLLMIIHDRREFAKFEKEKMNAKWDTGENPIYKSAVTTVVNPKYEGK

B1: Nucleolin of human endothelial cells (cell surface NL and total endogenous NL of HMECs; NL of HUVECs) (receptor)
chain: not shown
notes: whole, on cells; Used for the native protein on intact cells, in Triton X-100 extracts of plasma membrane, in cell lysates and in isolated nuclei; also called NL (110 kDa)
B1: no binding.
